Measured values reported in EPA's CvTdb concentration-time database.
This continues a long series; more values of the same kind are listed elsewhere.

Columns and labels:
Assay in all cases: concentration in plasma after dosing
[1] = test system: Rat; conditions: dosed: Perfluorodecanoic acid, 10 mg/kg, oral, Male, Harlan Sprague Dawley
[2] = test system: Rat; conditions: dosed: Perfluorodecanoic acid, 10 mg/kg, oral, Male, Harlan Sprague Dawley; remark: listed apart in the source
[3] = test system: Rat; conditions: dosed: Perfluorodecanoic acid, 2 mg/kg, oral, Male, Harlan Sprague Dawley
[4] = test system: Rat; conditions: dosed: Perfluorodecanoic acid, 20 mg/kg, oral, Female, Harlan Sprague Dawley
[5] = test system: Rat; conditions: 1 h; dosed: Perfluorodecanoic acid; 10 mg/kg; oral; Female; Harlan Sprague Dawley
[6] = test system: Rat; conditions: dosed: Perfluorodecanoic acid, 2 mg/kg, oral, Male, Harlan Sprague Dawley; remark: listed apart in the source
[7] = test system: Rat; conditions: 864 h; dosed: Perfluorooctane Sulfonate; 20 mg/kg; oral; Female; F344
[8] = test system: Rat; conditions: 24 h; dosed: Perfluorooctane Sulfonate; 20 mg/kg; oral; Female; F344
[9] = test system: Rat; conditions: dosed: Perfluorooctane Sulfonate, 20 mg/kg, oral, Male, Harlan Sprague Dawley
[10] = test system: Rat; conditions: 1848 h; dosed: Perfluorooctane Sulfonate; 20 mg/kg; oral; Male; Harlan Sprague Dawley
[11] = test system: Rat; conditions: 6 h; dosed: Perfluorooctane Sulfonate; 20 mg/kg; oral; Female; F344
[12] = test system: Rat; conditions: 6 h; dosed: Perfluorooctane Sulfonate; 2 mg/kg; oral; Female; Harlan Sprague Dawley
[13] = test system: Rat; conditions: dosed: Perfluorooctane Sulfonate, 2 mg/kg, oral, Female, Harlan Sprague Dawley
[14] = test system: Rat; conditions: 1848 h; dosed: Perfluorooctane Sulfonate; 20 mg/kg; oral; Male; Harlan Sprague Dawley; remark: listed apart in the source
[15] = test system: Rat; conditions: 24 h; dosed: Perfluorooctane Sulfonate; 2 mg/kg; oral; Female; Harlan Sprague Dawley
[16] = test system: Rat; conditions: 1848 h; dosed: Perfluorooctane Sulfonate; 2 mg/kg; oral; Female; Harlan Sprague Dawley
[17] = test system: Rat; conditions: dosed: Perfluorooctane Sulfonate, 20 mg/kg, oral, Female, F344
[18] = test system: Rat; conditions: dosed: Fluorotelomer alcohol 8+2, 24 mg/kg, oral, Male, Harlan Sprague Dawley
[19] = test system: Rat; conditions: dosed: Fluorotelomer alcohol 8+2, 48 mg/kg, oral, Male, Harlan Sprague Dawley
[20] = test system: Rat; conditions: 3 h; dosed: Fluorotelomer alcohol 8+2; 80 mg/kg; oral; Female; Harlan Sprague Dawley
[21] = test system: Rat; conditions: 6 h; dosed: Perfluorooctanoic acid; 12 mg/kg; oral; Male; Harlan Sprague Dawley
[22] = test system: Rat; conditions: 3 h; dosed: Fluorotelomer alcohol 8+2; 160 mg/kg; oral; Female; Harlan Sprague Dawley
[23] = test system: Rat; conditions: 48 h; dosed: Fluorotelomer alcohol 8+2; 40 mg/kg; oral; Female; Harlan Sprague Dawley
[24] = test system: Rat; conditions: 24 h; dosed: Perfluorooctanoic acid; 40 mg/kg; iv; Male; F344
[25] = test system: Rat; conditions: 0.5 h; dosed: Fluorotelomer alcohol 8+2; 24 mg/kg; oral; Male; Harlan Sprague Dawley
[26] = test system: Rat; conditions: dosed: Perfluorooctanoic acid, 40 mg/kg, oral, Male, Harlan Sprague Dawley
[27] = test system: Rat; conditions: dosed: Perfluorooctanoic acid, 6 mg/kg, oral, Male, Harlan Sprague Dawley
[28] = test system: Rat; conditions: dosed: Fluorotelomer alcohol 8+2, 48 mg/kg, oral, Male, Harlan Sprague Dawley; remark: listed apart in the source
[29] = test system: Rat; conditions: 0.5 h; dosed: Fluorotelomer alcohol 8+2; 160 mg/kg; oral; Female; Harlan Sprague Dawley
[30] = test system: Rat; conditions: dosed: Perfluorooctanoic acid, 80 mg/kg, oral, Female, Harlan Sprague Dawley
[31] = test system: Rat; conditions: dosed: Perfluorooctanoic acid, 6 mg/kg, iv, Male, F344
[32] = test system: Rat; conditions: dosed: Perfluorooctanoic acid, 320 mg/kg, oral, Female, Harlan Sprague Dawley
[33] = test system: Rat; conditions: dosed: Fluorotelomer alcohol 8+2, 80 mg/kg, oral, Female, Harlan Sprague Dawley

O=C(O)C(F)(F)C(F)(F)C(F)(F)C(F)(F)C(F)(F)C(F)(F)C(F)(F)C(F)(F)C(F)(F)F [Perfluorodecanoic acid]
Conditions | concentration in plasma [ng/mL]
[1], 12 h | 46500
[1], 864 h | 11300
[2], 6 h | 36800
[2], 1200 h | 7190
[2], 3360 h | 2130
[3], 6 h | 7630
[3], 864 h | 1300
[4], 6 h | 88700
[4], 864 h | 27100
[6], 2 h | 6970
[6], 528 h | 5080
[6], 3360 h | 827

Conditions | concentration in plasma [ng/mL]
[5] | 25100

O=S(=O)([O-])C(F)(F)C(F)(F)C(F)(F)C(F)(F)C(F)(F)C(F)(F)C(F)(F)C(F)(F)F [Perfluorooctane Sulfonate]
Conditions | concentration in plasma [ng/mL]
[7] | 32900
[8] | 116000
[10] | 4540
[11] | 128000
[12] | 6300
[14] | 18800
[15] | 6530
[16] | 1580

Conditions | concentration in plasma [ng/mL]
[9], 1 h | 54400
[9], 528 h | 56700
[9], 2520 h | 4410
[13], 12 h | 6120
[13], 1200 h | 3080
[17], 5 min | 305
[17], 192 h | 60200
[17], 2520 h | 7220

O=C(O)C(F)(F)C(F)(F)C(F)(F)C(F)(F)C(F)(F)C(F)(F)C(F)(F)F [Perfluorooctanoic acid]
Conditions | concentration in plasma [ng/mL]
[18], 0.75 h | 135
[18], 48 h | 884
[19], 0.25 h | 17.8
[19], 6 h | 1930
[26], 1 h | 136000
[26], 12 h | 101000
[27], 0.25 h | 9470
[27], 12 h | 36500
[27], 528 h | 9330
[28], 1 h | 409
[28], 24 h | 1590
[30], 0.25 h | 102000
[30], 9 h | 268000
[31], 0.5 h | 47800
[31], 12 h | 47200
[31], 1200 h | 1240
[32], 0.25 h | 91700
[32], 9 h | 358000
[32], 96 h | 4790
[33], 0.25 h | 149
[33], 24 h | 260

Conditions | concentration in plasma [ng/mL]
[20] | 3220
[21] | 90300
[22] | 5460
[23] | 14.1
[24] | 819
[25] | 99.5
[29] | 397
